Test results: the supplement of paper PMC7125110
± gives the standard error. Variants at the background level are over-represented here.

B1: glmS ribozyme (parent)
chain: AUAAAAGCGCCAGAACUACAGAAAUGUAGUUGACGAGGAGGAGGUUUAUCGAAUUUUCGGCGGAUGCCUCCAAA

How the values were obtained:
Settings in all cases: with glucosamine-6-phosphate
glucosamine-6-phosphate [1] = variants of: B1; experiment: self-cleavage kobs at 40 uM GlcN6P; higher = faster cleavage; RNA array
In short: (§1)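 kobs was derived by fitting per-tile medians to one- or two-exponential decays after normalising signals to baseline and to non-cleaving reference variants. Those signals came from barcoded ribozyme variants transcribed in situ by E. coli RNA polymerase on sequenced MiSeq chips, followed through a hybridised Cy3 probe at 37 °C and imaged over ~14 h. Glucosamine-6-phosphate (40 μM to 10 mM) in HEPES/KCl/Mg(OAc)2 buffer was flowed in. Weighted Michaelis–Menten fits across concentrations then gave kcat and KM.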

glucosamine-6-phosphate [2] = variants of: B1; experiment: self-cleavage kobs at 640 uM GlcN6P; higher = faster cleavage; RNA array
In short: as §1

glucosamine-6-phosphate [3] = variants of: B1; experiment: self-cleavage kobs at 10000 uM GlcN6P; higher = faster cleavage; RNA array
In short: as §1

glucosamine-6-phosphate [4] = variants of: B1; experiment: self-cleavage kobs at 160 uM GlcN6P; higher = faster cleavage; RNA array
In short: as §1

glucosamine-6-phosphate [5] = variants of: B1; experiment: self-cleavage kobs at 2500 uM GlcN6P; higher = faster cleavage; RNA array
In short: as §1

Variant | self-cleavage kobs at 40 uM GlcN6P (glucosamine-6-phosphate [1]) | self-cleavage kobs at 640 uM GlcN6P (glucosamine-6-phosphate [2]) | self-cleavage kobs at 10000 uM GlcN6P (glucosamine-6-phosphate [3]) | self-cleavage kobs at 160 uM GlcN6P (glucosamine-6-phosphate [4]) | self-cleavage kobs at 2500 uM GlcN6P (glucosamine-6-phosphate [5])
AUAAAAGGGCCAUAACUACAGAAAUGUAGCUGACGAGGAGGAUGUUUAUCGAAUUUUCGGCGGAUGCCUCCAAA [C8G G13U U30C G43U] | < 1e-05 s⁻¹ |  |  |  | 
AUAAAAGGUCCAGAACUACAGAAAUGUAGUUGACGAGGAGGAGGUUUAUCGAAUUUUCGGCGGAUGCCUCCAAA [C8G G9U] | < 1e-05 s⁻¹ | < 1e-05 s⁻¹ |  |  | 
AUAAAAGGGUCAGAACUACAGAAAUGUAGUUGACGAGGAGGAGGUUUUUCGAAUUUUCGGCGGUUGCCUCCAAA [C8G C10U A48U A64U] | < 1e-05 s⁻¹ |  | < 1e-05 s⁻¹ |  | 
AUAAAAGGGCCAGAACUACAGAAAUGUAGUUGACGAGGAGGAGGUUUAUCGAAUUUUCGGCGGAUGCCUGCAAA [C8G C70G] | < 1e-05 s⁻¹ |  |  | < 1e-05 s⁻¹ | < 1e-05 s⁻¹
AUAAAAGGGCCAGAACUACAGAAAUGUACUUGACGAGGAGGAGGUUUAUCGAAUUUUCGACGGAUGCCUCAAAA [C8G G29C G60A C71A] | < 1e-05 s⁻¹ | < 1e-05 s⁻¹ |  | < 1e-05 s⁻¹ | < 1e-05 s⁻¹
AUAAAAGGGCCAGAACUACAGAAAUGUAGUUGACGUGGAGGAGGUUUAUCGAAUUUUCGCCGGAUGCCUCCAAA [C8G A36U G60C] | < 1e-05 s⁻¹ |  |  |  | 
AUAAAAGGGCCAGAACUACAGAAAUGUAGUUGACGAGGAGGAGGUUUAUCGAAUUUUCGGCGGUUGCCUCCAAA [C8G A64U] | < 1e-05 s⁻¹ | < 1e-05 s⁻¹ | < 1e-05 s⁻¹ | < 1e-05 s⁻¹ | < 1e-05 s⁻¹
AUAAAAGGGCCAGAACUACAGAAAUGUAGUUGAUGAGGAGGAGGUUUAUCGAAUGUUCGGCGGAUGCCUCCAAA [C8G C34U U55G] | < 1e-05 s⁻¹ |  |  |  | 
AUAAAAGGGCCAGAACUACAGAAAUGUAGUUGACGAGGUGGAGGUUUAUCGAAUUUUCGGCGGAUGACUCCAAA [C8G A39U C67A] | < 1e-05 s⁻¹ |  |  |  | 
AUAAAAGGGCAAGAACUACAGAAAUGUAGUUGACGAGGAGGAGGUUUAUGGAAUUUUCGGCGGAUGCCUCCAAA [C8G C11A C50G] | 0.000193 ± 4.9e-05 s⁻¹ |  |  |  | 
AUAAAAGGGCCAGAACUACAGAAAUGUAGUUGACGAGGAGGAGGUUUAUCGAAUUUUCGGAGGAUCCCUCCAAA [C8G C61A G66C] | < 1e-05 s⁻¹ |  |  |  | < 1e-05 s⁻¹
AUAAAAGGGCUAGAACUACAGAAAUGUAGUUGACGAGGAGGAGGUUUAUCGAAUUUUCGGCGGAUGCCUCCAAA [C8G C11U] | < 1e-05 s⁻¹ | < 1e-05 s⁻¹ | < 1e-05 s⁻¹ | < 1e-05 s⁻¹ | < 1e-05 s⁻¹
AUAAAAGGUCCAGAACUACAGAAAUGUAGUUGACGAGGAUGCCGUUUAUCGAAUUUUCGGCGGAUGCCUCCAAA [C8G G9U G40U A42C G43C] | < 1e-05 s⁻¹ |  | < 1e-05 s⁻¹ |  | 
AUAAAAGGGCCAGAACUACAGAAAUGUAGUUGACGAGGAGGAGGUUUUUCGAAUUUUCGGCGGAUGCAUCCAAA [C8G A48U C68A] | < 1e-05 s⁻¹ |  |  |  | 
AUAAAAGGGCCAGAACUACAGAAAUGUACUUGACGAGGAGGAGGUUUAUCGAAUUUUCGGCGGAUGCCUCCAAA [C8G G29C] | < 1e-05 s⁻¹ | < 1e-05 s⁻¹ | < 1e-05 s⁻¹ | < 1e-05 s⁻¹ | < 1e-05 s⁻¹
AUAAAAGGGCCAGAACUACAGAAAUGUAGUUGACGAGGAGGGGGUUUAUCGAAUUUUCGGCGGAUGCGUCCAAA [C8G A42G C68G] | < 1e-05 s⁻¹ |  |  |  | 
